Read-outs that look alike come from different tables or passages of the source.
Target: Thermoascus aurantiacus GH61A polypeptide (Thermoascus aurantiacus, UniProt G3XAP7, N13Y)
Format: biochemical
Conditions: for GH61 effect / organic compound effect(+GH61): AVICEL, 1 mM organic compound; for GH61 effect-day 1 (stand. dev.): ratio of conversion with GH61 to without GH61, organic compound present
Protocol: Microcrystalline cellulose was used as the source of cellulosic material.
The concentration of each organic compound was 1 mM.

[1] = time not specified (FIG. 1: 3 and 7 days)
[2] = first GH61 effect column of Table 1
[3] = second GH61 effect column of Table 1

SMILES | GH61 effect [1] | organic compound effect(+GH61) [1] | organic compound effect(+GH61) (pH 5.0, 50° C., 3 days) | organic compound effect(+GH61) (pH 5.0, 50° C., 7 days) | GH61 effect-day 1 (stand. dev.) [2] | GH61 effect-day 1 (stand. dev.) [3] | GH61 effect (pH 5.0, 50° C., 7 days)
COC(=O)c1ccc(O)cc1 [methyl-4-hydroxybenzoate] | greater than 1 | greater than 1 |  |  |  |  | 
O=C(O)C(O)C(O)C(=O)O (centres unmarked) [tartrate] |  |  | below 1 | below 1 | 1.01 |  | 
O=C(O)/C=C(\CC(=O)O)C(=O)O [trans-aconitic acid] |  |  |  |  | 0.982 | 1.00 | 
Oc1ccccc1O [pyrocatechol] |  |  | 1.04±0.0177 | 0.969±0.00741 |  |  | 
COc1cc(C=CC(=O)O)ccc1O [4-hydroxy-3-methoxycinnamic acid] |  |  | below 1 | approximately 1 | 0.960 | 1.03 | greater than 1
O=C1OC(C(O)CO)C(=O)C1=O (centres unmarked) [dehydroascorbate] |  |  | 1.14±0.0203 | 1.23±0.0101 |  |  | 
CC(C)(C)c1cc(C(=O)O)cc(C(C)(C)C)c1O [3,5-di-tert-butyl-4-hydroxybenzoic acid] |  |  |  |  | 0.991 | 1.00 | 
O=C(O)c1ccc(O)c(O)c1 [3,4-dihydroxybenzoic acid] |  | approximately 1 |  |  |  |  | 1.06±0.0171
COc1cc(C(=O)O)ccc1O [4-hydroxy-3-methoxybenzoic acid] |  |  |  |  | 1.00 | 1.00 | 
O=C1C[C@@H](c2ccc(O)cc2)Oc2cc(O)cc(O)c21 [naringenin] |  |  |  |  | 1.01 | 1. | 
Oc1cccc(O)c1O [pyrogallol] |  |  | 1.05±0.0198 | 0.933±0.00452 | 1.228 |  | 
O=C(O)c1cc(O)cc(O)c1 [3,5-dihydroxybenzoic acid] | greater than 1 |  |  | greater than 1 | 1.01 | 1.07 | 
COc1cccc(OC)c1O [2,6-dimethoxyphenol] |  |  |  |  | 1.05 | 1.17 | 
O=C(O)c1ccc(O)cc1 [4-hydroxybenzoic acid] | greater than 1 | approximately 1 |  |  | 1.01 | 1.03 | 
COC(=O)c1cc(O)c(O)c(O)c1 [methyl-3,4,5-trihydroxybenzoate] |  |  |  | 0.988±0.0157 |  |  | 

Reference: patent publication US8846351B2, “Compositions for enhancing hydroysis of cellulosic material by cellulolytic enzyme compositions” (Novozymes, Inc., priority 2010, dated 2014)
